# Results reported in the supplement of paper PMC6531468.
# The other results are listed elsewhere or left out. Values come from read counts of a selection and are noisy. Each score is taken over the longer molecules that contain the sequence shown.
# What was measured:
# Test in all cases: 6-mer SELEX enrichment z-score vs GST control; IMP3 is the RNA-binding protein IGF2BP3; higher = more enriched by binding
# IMP3 KH1-4 = details: construct: KH1-4 (164-579); SELEX round: R4
# Protocol: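 SELEX-seq with GST-tagged IMP3 KH1-4 (Pro164-Lys579) and an N40 RNA pool, round 4. 6-mer z-score of sequence-tag enrichment normalised to the corresponding GST SELEX round; RNA k-mers written as DNA (T for U).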
# IMP3 RRM1-2 = details: construct: RRM1-2 (1-163); SELEX round: R2
# Protocol: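 SELEX-seq with GST-tagged IMP3 RRM1-2 (Met1-Asn163) and an N40 RNA pool, round 2. 6-mer enrichment z-score normalised to GST SELEX. RNA written as DNA (T = U).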
# IMP3 full-length = IMP3 full-length (UniProt O00425); details: construct: FL IMP3 (1-579); SELEX round: R4
# Protocol: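 SELEX-seq with GST-tagged full-length IMP3 and an N40 RNA pool, round 4. Each 6-mer is scored as an enrichment z-score of sequence tags containing it, normalised to the matching GST SELEX round. RNA written as DNA (T = U).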
# IMP3 KH1-2 = details: construct: KH1-2 (164-376); SELEX round: R4
# Protocol: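 SELEX-seq with GST-tagged IMP3 KH1-2 (Pro164-Phe376) and an N40 RNA pool, round 4 (stringent 300/600 mM KCl washes). 6-mer z-score of sequence-tag enrichment normalised to the corresponding GST SELEX round; RNA k-mers written as DNA (T for U).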
# IMP3 KH3-4 = details: construct: KH3-4 (377-579); SELEX round: R4
# Protocol: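 SELEX-seq with GST-tagged IMP3 KH3-4 (Pro377-Lys579) and an N40 RNA pool, round 4. 6-mer z-score of sequence-tag enrichment normalised to the corresponding GST SELEX round; RNA k-mers written as DNA (T for U).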
# Sequence of IMP3 KH1-2 (chain, as listed by the source): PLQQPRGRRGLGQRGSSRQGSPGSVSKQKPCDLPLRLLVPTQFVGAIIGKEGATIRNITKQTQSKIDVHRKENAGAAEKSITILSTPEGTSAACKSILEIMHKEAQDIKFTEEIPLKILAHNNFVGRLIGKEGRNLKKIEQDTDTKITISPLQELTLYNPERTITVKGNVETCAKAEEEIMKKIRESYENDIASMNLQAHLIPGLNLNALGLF
# Sequence of IMP3 KH3-4 (chain, as listed by the source): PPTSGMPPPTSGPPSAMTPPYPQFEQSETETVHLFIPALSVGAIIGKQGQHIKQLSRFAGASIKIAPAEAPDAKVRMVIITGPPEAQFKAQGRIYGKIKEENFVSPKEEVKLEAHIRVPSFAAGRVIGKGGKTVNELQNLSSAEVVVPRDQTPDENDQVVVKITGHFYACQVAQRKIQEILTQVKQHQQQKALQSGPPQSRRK
# Sequence of IMP3 RRM1-2 (chain, as listed by the source): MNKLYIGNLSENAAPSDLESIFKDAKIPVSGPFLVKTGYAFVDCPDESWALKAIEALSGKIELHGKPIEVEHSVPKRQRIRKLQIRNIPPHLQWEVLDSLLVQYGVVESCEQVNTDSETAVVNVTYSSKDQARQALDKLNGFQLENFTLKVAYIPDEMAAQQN
# Sequence of IMP3 KH1-4 (chain, as listed by the source): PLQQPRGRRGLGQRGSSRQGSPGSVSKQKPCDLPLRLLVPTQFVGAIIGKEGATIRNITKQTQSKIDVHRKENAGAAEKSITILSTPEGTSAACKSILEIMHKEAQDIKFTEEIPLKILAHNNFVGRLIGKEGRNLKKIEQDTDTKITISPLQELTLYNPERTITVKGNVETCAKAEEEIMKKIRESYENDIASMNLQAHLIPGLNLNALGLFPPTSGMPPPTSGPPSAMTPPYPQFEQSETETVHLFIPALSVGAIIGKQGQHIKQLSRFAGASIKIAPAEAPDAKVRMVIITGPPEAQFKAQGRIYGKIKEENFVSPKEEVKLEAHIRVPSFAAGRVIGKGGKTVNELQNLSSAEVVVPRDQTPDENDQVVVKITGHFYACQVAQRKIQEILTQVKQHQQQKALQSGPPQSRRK
# Sequence of UniProt O00425 (O00425 whole entry): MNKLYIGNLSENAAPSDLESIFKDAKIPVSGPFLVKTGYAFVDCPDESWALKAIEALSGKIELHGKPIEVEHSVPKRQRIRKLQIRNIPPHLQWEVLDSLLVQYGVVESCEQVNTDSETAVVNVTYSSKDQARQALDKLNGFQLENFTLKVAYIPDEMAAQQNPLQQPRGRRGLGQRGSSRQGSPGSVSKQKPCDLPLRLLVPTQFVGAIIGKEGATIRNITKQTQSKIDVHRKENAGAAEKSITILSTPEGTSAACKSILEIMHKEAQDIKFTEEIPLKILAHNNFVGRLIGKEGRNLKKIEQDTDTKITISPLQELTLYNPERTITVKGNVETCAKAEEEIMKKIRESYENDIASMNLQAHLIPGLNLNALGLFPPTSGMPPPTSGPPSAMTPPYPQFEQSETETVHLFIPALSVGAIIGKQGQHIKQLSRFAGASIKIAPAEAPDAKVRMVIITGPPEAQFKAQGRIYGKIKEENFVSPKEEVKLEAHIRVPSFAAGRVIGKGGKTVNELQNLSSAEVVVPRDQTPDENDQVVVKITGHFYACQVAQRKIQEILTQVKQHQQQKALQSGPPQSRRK
Sequence,6-mer SELEX enrichment z-score (IMP3 KH1-4),6-mer SELEX enrichment z-score (IMP3 RRM1-2),6-mer SELEX enrichment z-score (IMP3 full-length),6-mer SELEX enrichment z-score (IMP3 KH1-2),6-mer SELEX enrichment z-score (IMP3 KH3-4)
CAGTTG,0.051,0.324,0.201,-0.05,
TTAAAT,0.974,-0.319,-0.21,0.877,
GGGTTC,0.078,0.399,0.255,0.208,
GGAATA,0.9,-0.774,-0.312,0.582,
TACATG,1.47,0.561,0.849,1.23,
ACCGAT,-0.679,-1.07,-0.875,-0.442,
CGGATC,-0.002,0.07,0.378,-0.096,
ACTTTA,1.01,-0.091,-0.117,1.01,
ACGGTA,-0.442,-0.148,-0.175,-0.509,
CAGCAT,0.558,0.774,1.4,0.371,
ACGGCC,1.56,-0.252,1.41,1.07,
GGACTA,0.224,-0.495,-0.351,0.095,
CAACCT,-0.899,-0.017,-0.929,-0.836,-1.4
TGCTTT,0.403,0.348,0.111,0.459,
CAGGCG,-0.009,0.465,1.03,0.102,
GAAGAT,0.923,-1.09,-0.362,0.592,
CGTATT,-0.533,0.03,-0.378,-0.435,
ATCACC,0.424,1.27,0.82,0.412,
ACCCTA,-1.43,-0.898,-1.48,-1.46,
TCTTGC,-0.486,0.475,-0.119,-0.427,
GGCGTG,-1.26,0.223,-0.291,-1.05,
TTCTAC,0.486,0.381,-0.001,0.54,
TTGCAC,0.841,0.269,0.396,0.603,
TCTATC,0.477,0.505,0.237,0.375,

Sequence,6-mer SELEX enrichment z-score (IMP3 KH1-4),6-mer SELEX enrichment z-score (IMP3 RRM1-2),6-mer SELEX enrichment z-score (IMP3 full-length),6-mer SELEX enrichment z-score (IMP3 KH1-2),6-mer SELEX enrichment z-score (IMP3 KH3-4)
CTTTAA,0.743,-0.259,-0.296,0.735,
TGCAAC,0.431,0.313,0.475,0.235,
TATCAT,1.5,1.36,1.48,1.48,
AGAGGC,1.26,-0.169,1.07,1.02,
GTTACG,0.214,0.02,-0.051,0.026,
TCGCGG,-0.21,0.208,0.3,-0.114,
AACCAT,0.532,1.52,0.416,0.66,
AGGATT,0.862,-0.143,0.123,0.674,
GTCACT,0.295,0.452,0.359,0.113,
TATATG,1.5,-0.053,0.238,1.12,
AATGAA,1.83,-1.94,-1.02,1.16,
ATGCAT,1.02,0.587,0.911,0.732,
TCACCA,0.783,1.65,0.968,0.799,
ATTTAC,1.38,0.132,0.455,1.44,
AGTTCC,-0.209,0.03,-0.296,-0.255,-0.406
GTTGAA,-0.411,-0.565,-0.607,-0.462,-0.255
ATTTGT,0.656,0.299,0.048,0.419,0.785
TAAGTA,0.239,-0.202,-0.225,0.149,0.65
GGCGTC,-0.298,0.524,0.869,-0.126,-0.092
CATCTC,-0.016,0.768,0.758,-0.006,-0.429
CCACAG,-0.479,0.59,0.479,-0.293,-1.01
CGATTT,0.159,-0.111,-0.212,0.198,0.352
GGGACA,0.663,-0.103,0.361,0.739,0.554
AAACAT,1.22,2.28,1.64,1.17,1.84

Sequence,6-mer SELEX enrichment z-score (IMP3 KH1-4),6-mer SELEX enrichment z-score (IMP3 RRM1-2),6-mer SELEX enrichment z-score (IMP3 full-length),6-mer SELEX enrichment z-score (IMP3 KH1-2),6-mer SELEX enrichment z-score (IMP3 KH3-4)
GCATTG,0.104,0.482,0.462,0.043,0.002
CGGGAC,-0.588,-0.566,-0.046,-0.364,-0.604
AGGGTG,0.09,0.089,0.198,0.222,0.302
TCAATC,0.43,1.96,1.09,0.352,0.099
AGGGGC,1.09,0.155,0.724,1.35,1.44
TTGGCG,-0.295,0.341,0.107,-0.157,0.018
AAGTCG,0.807,-0.119,0.696,0.399,0.579
AGTCGA,0.37,-0.201,0.355,0.127,0.3
TTTAGA,0.401,-0.123,-0.22,0.351,0.963
GTCGCT,0.192,0.398,0.326,0.197,0.207
GTCAGC,0.195,0.39,0.587,0.007,-0.136
GGTCAC,-0.034,0.197,0.533,-0.117,-0.171
GACTGC,-0.019,-0.433,-0.33,-0.076,-0.434
GTACTG,-0.4,-0.036,-0.296,-0.409,-0.438
CCAGAC,-1.13,-0.646,-0.925,-0.959,-1.59
AGTTGG,0.132,0.397,0.25,0.182,0.217
GTACAT,0.384,0.354,0.671,0.235,0.222
TTCGGT,0.038,0.442,0.248,0.037,0.246
TTATTG,0.746,0.267,0.138,0.569,0.944
GGGCGT,-1.74,0.309,-0.621,-1.46,-1.37
GGACCT,-1.22,-0.424,-0.861,-1.08,-1.19
ACATTA,2.28,1.52,1.69,2.28,2.68
CGCCAT,0.667,0.221,0.853,0.67,0.251
GAAGAC,-0.211,-1.37,-0.792,-0.298,-0.262

Sequence,6-mer SELEX enrichment z-score (IMP3 KH1-4),6-mer SELEX enrichment z-score (IMP3 RRM1-2),6-mer SELEX enrichment z-score (IMP3 full-length),6-mer SELEX enrichment z-score (IMP3 KH1-2),6-mer SELEX enrichment z-score (IMP3 KH3-4)
AGGAAG,1.01,-0.687,0.115,0.789,0.959
TCAGAT,0.714,0.647,0.836,0.723,0.747
ACTCGT,-0.906,-0.008,-0.46,-0.82,-0.803
CCTAAT,-0.267,-0.443,-0.778,-0.287,-0.357
ACGTTG,-0.701,-0.098,-0.448,-0.729,-0.629
ATCAAT,1.51,1.9,1.84,1.45,1.49
ATGCGG,0.508,-0.026,0.406,0.304,0.612
CAGCTT,-0.121,0.301,0.208,-0.01,-0.119
GCATCG,0.871,0.57,1.82,0.397,0.083
ACATGC,0.922,1.02,1.15,0.761,0.358
AAACGA,-2.08,-2.87,-2.79,-2.16,-1.37
TGCATT,0.468,0.563,0.452,0.34,0.422
TGGCAA,0.635,0.223,0.639,0.37,0.688
GTAATC,-0.219,0.136,-0.098,-0.324,-0.203
ATGGCT,0.386,0.425,0.302,0.387,0.622
TACGGA,0.32,-0.523,-0.144,0.092,0.382
GCACCA,0.506,0.766,1.46,0.388,-0.275
AACGCC,-0.877,-1.22,-0.942,-0.665,-1.37
CTCAAG,-1.21,0.129,-0.475,-1.07,-1.05
ATTGCA,1.4,0.192,0.564,1.21,1.13
CGCGAG,-1.57,-0.25,-0.541,-1.37,-1.28
TTACAG,0.893,0.258,0.598,1.02,0.973
GCTACT,-0.093,0.244,-0.06,-0.003,-0.017
TCCCTT,0.57,0.163,-0.181,0.429,0.14

Sequence,6-mer SELEX enrichment z-score (IMP3 KH1-4),6-mer SELEX enrichment z-score (IMP3 RRM1-2),6-mer SELEX enrichment z-score (IMP3 full-length),6-mer SELEX enrichment z-score (IMP3 KH1-2),6-mer SELEX enrichment z-score (IMP3 KH3-4)
CTCACG,-0.94,0.365,-0.17,-0.848,-1.07
TATTTG,0.733,0.302,0.036,0.55,1.03
TAAACA,1.29,0.398,0.157,1.43,2.1
CTCTTA,0.312,0.214,-0.008,0.343,0.294
GTATTG,0.046,0.142,-0.08,0.063,0.224
GAATTG,0.373,-0.665,-0.436,0.176,0.658
CAATAC,1.03,0.847,1.14,1.26,0.606
TTGACA,0.071,-0.255,-0.144,-0.074,0.119
CCCGCA,-0.512,0.098,0.151,-0.266,-1.07
CGTGAC,-0.638,-0.556,-0.357,-0.699,-0.772
GCGACG,-0.963,-0.406,-0.145,-0.853,-0.864
TGCGTT,-0.821,0.391,-0.359,-0.648,-0.493
CGCTTT,0.311,0.212,0.105,0.423,0.34
CAAAAT,-0.032,-0.932,-0.832,0.105,0.385
CACATT,2.47,2.31,2.58,2.62,2.05
ATGCTA,0.406,-0.171,-0.126,0.294,0.471
CCAGGT,-0.218,0.058,0.03,-0.301,-0.384
GTAGGA,-0.369,0.957,-0.215,-0.375,-0.243
CGAGAG,-1.3,-0.662,-0.676,-1.14,-1.1
TGGGTG,0.058,0.348,0.055,0.143,0.225
CAATGA,0.601,-0.52,-0.145,0.2,0.838
CTCCGG,-0.603,-0.109,-0.035,-0.456,-0.66
AAATGA,0.823,-2.23,-1.62,0.32,2.4
TCATGC,0.386,0.871,0.978,0.29,0.04
